According to the supplement of paper PMC4967469:
The IC50 comes from the fitted curve, where viability falls to half of the control; where the fit passes the top or lowest dose, that dose stands as a limit. AUC sums up the same curve from the lowest dose to the 256-fold higher top dose; it is 1 without any effect and falls as sensitivity rises. For some assays here: Any top dose called inferred was calculated from the reported fits. For some assays here: An entry number marks a drug with two screens in the source, which often give different values.

Key:
Assay in all cases: Viability of human cancer cell lines after 72 h of drug (GDSC screen)
LFM-A13 = compound: C/C(O)=C(\C#N)C(=O)Nc1cc(Br)ccc1Br [LFM-A13]; settings: top dose 16 µM; top dose inferred
Method: (§1)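 Human cancer cell lines in 384-well plates, medium with 10% serum, drug for 72 h over a 256-fold dose range (nine 2-fold or five 4-fold steps up to the top dose). Adherent lines were fixed and stained with the nucleic acid dye Syto60, suspension lines read with resazurin; signal relative to control wells, capped at 0 and 100%. One two-parameter sigmoid per drug and line, fitted in a mixed model over all curves with the slope shared within a line.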

TW-37 = compound: CC(C)c1ccccc1Cc1cc(C(=O)Nc2ccc(S(=O)(=O)c3ccccc3C(C)(C)C)cc2)c(O)c(O)c1O [TW-37]; settings: top dose 5 µM
Method: as §1

Bicalutamide = compound: CC(O)(CS(=O)(=O)c1ccc(F)cc1)C(=O)Nc1ccc(C#N)c(C(F)(F)F)c1 [Bicalutamide]; settings: top dose inferred
Method: as §1

AUY922 = compound: CCNC(=O)c1noc(-c2cc(C(C)C)c(O)cc2O)c1-c1ccc(CN2CCOCC2)cc1 [AUY922]; settings: top dose 0.256 µM; top dose inferred
Method: as §1

KIN001-270 = compound: Cc1ccc(Nc2cc(-c3cccc(N4C(=O)c5ccccc5C4=O)c3)ncn2)cc1NS(C)(=O)=O [KIN001-270]; settings: top dose 20 µM; top dose inferred
Method: as §1

Nilotinib = compound: Cc1cn(-c2cc(NC(=O)c3ccc(C)c(Nc4nccc(-c5cccnc5)n4)c3)cc(C(F)(F)F)c2)cn1 [Nilotinib]; settings: top dose 2 µM
Method: as §1

Gemcitabine = compound: Nc1ccn([C@@H]2O[C@H](CO)[C@@H](O)C2(F)F)c(=O)n1 [Gemcitabine]; settings: top dose 1.024 µM
Method: as §1

T0901317 = compound: O=S(=O)(c1ccccc1)N(CC(F)(F)F)c1ccc(C(O)(C(F)(F)F)C(F)(F)F)cc1 [T0901317]; settings: top dose 10.24 µM; top dose inferred
Method: as §1

MP470 = compound: S=C(NCc1ccc2c(c1)OCO2)N1CCN(c2ncnc3c2oc2ccccc23)CC1 [MP470]; settings: top dose 20 µM; top dose inferred
Method: as §1

[1] = top dose 1.024 µM, screen: GDSC drug entry 150
[2] = top dose 10 µM, screen: GDSC drug entry 1502

Cell Line	AUC (LFM-A13)	IC50 (LFM-A13)	AUC (TW-37)	IC50 (TW-37)	AUC (Bicalutamide; [1])	IC50 (Bicalutamide; [1])	AUC (Bicalutamide; [2])	IC50 (Bicalutamide; [2])	AUC (AUY922)	IC50 (AUY922)	AUC (KIN001-270)	IC50 (KIN001-270)	AUC (Nilotinib)	IC50 (Nilotinib)	AUC (Gemcitabine)	IC50 (Gemcitabine)	AUC (T0901317)	IC50 (T0901317)	AUC (MP470)	IC50 (MP470)
PC-3 [JPC-3] (lung adenocarcinoma, adherent)	0.958	> 16000 nM	0.834	4860 nM	0.981	> 1020 nM	0.965	> 10000 nM	0.58	28.4 nM	0.917	> 20000 nM	0.981	> 2000 nM	0.49	59.8 nM	0.978	> 10200 nM	0.948	> 20000 nM
PCI-15A (head and neck, adherent)	0.982	> 16000 nM	0.59	551 nM	0.988	> 1020 nM	0.977	> 10000 nM	0.594	29 nM	0.971	> 20000 nM	0.986	> 2000 nM	0.535	79.9 nM	0.973	> 10200 nM	0.966	> 20000 nM
PCI-30 (head and neck, adherent)	0.982	> 16000 nM	0.75	1970 nM	0.982	> 1020 nM	0.983	> 10000 nM	0.817	185 nM	0.979	> 20000 nM	0.936	> 2000 nM	0.984	> 1020 nM	0.97	> 10200 nM	0.954	> 20000 nM
PE/CA-PJ15 (head and neck, adherent)	0.982	> 16000 nM	0.519	353 nM	0.985	> 1020 nM	0.907	> 10000 nM	0.786	120 nM	0.97	> 20000 nM	0.972	> 2000 nM	0.541	83.7 nM	0.97	> 10200 nM	0.945	> 20000 nM
RC-K8 (B-cell lymphoma, suspension)	0.993	> 16000 nM	0.726	1240 nM	0.993	> 1020 nM	0.97	> 10000 nM	0.891	230 nM	0.981	> 20000 nM	0.992	> 2000 nM	0.783	372 nM	0.987	> 10200 nM	0.987	> 20000 nM
RCM-1 (large intestine, adherent)	0.973	> 16000 nM	0.799	3020 nM	0.985	> 1020 nM	0.98	> 10000 nM	0.83	210 nM	0.972	> 20000 nM	0.98	> 2000 nM	0.796	599 nM	0.973	> 10200 nM	0.966	> 20000 nM
RERF-LC-MS (lung adenocarcinoma, adherent)	0.986	> 16000 nM	0.32	96.5 nM	0.981	> 1020 nM	0.968	> 10000 nM	0.733	75.7 nM	0.982	> 20000 nM	0.987	> 2000 nM	0.635	152 nM	0.959	> 10200 nM	0.887	> 20000 nM
RERF-LC-Sq1 (lung squamous cell carcinoma, adherent)	0.933	> 16000 nM	0.698	1480 nM	0.968	> 1020 nM	0.968	> 10000 nM	0.979	> 256 nM	0.976	> 20000 nM	0.941	> 2000 nM	0.964	> 1020 nM	0.966	> 10200 nM	0.949	> 20000 nM
RH-41 (rhabdomyosarcoma, adherent)	0.985	> 16000 nM	0.37	147 nM	0.992	> 1020 nM	0.986	> 10000 nM	0.765	79.2 nM	0.989	> 20000 nM	0.989	> 2000 nM	0.898	910 nM	0.985	> 10200 nM	0.887	16000 nM
RO82-W-1 (thyroid, adherent)	0.98	> 16000 nM	0.533	394 nM	0.962	> 1020 nM	0.972	> 10000 nM	0.868	> 256 nM	0.96	> 20000 nM	0.978	> 2000 nM	0.902	> 1020 nM	0.978	> 10200 nM	0.969	> 20000 nM
RPMI-2650 (head and neck, adherent)	0.942	> 16000 nM	0.501	315 nM	0.985	> 1020 nM	0.962	> 10000 nM	0.499	15.9 nM	0.94	> 20000 nM	0.985	> 2000 nM	0.277	14 nM	0.972	> 10200 nM	0.942	> 20000 nM
RPMI-7951 (melanoma, adherent)	0.947	> 16000 nM	0.677	956 nM	0.987	> 1020 nM	–	–	0.39	8.07 nM	0.96	> 20000 nM	0.987	> 2000 nM	0.171	6.69 nM	0.969	> 10200 nM	0.919	> 20000 nM
RT4 (bladder, adherent)	0.977	> 16000 nM	0.91	> 5000 nM	0.987	> 1020 nM	0.986	> 10000 nM	0.987	> 256 nM	0.964	> 20000 nM	0.98	> 2000 nM	0.969	> 1020 nM	0.987	> 10200 nM	0.909	> 20000 nM
RVH-421 (melanoma, adherent)	0.946	> 16000 nM	0.493	298 nM	0.953	> 1020 nM	0.961	> 10000 nM	0.566	25.9 nM	0.964	> 20000 nM	0.929	> 2000 nM	0.846	> 1020 nM	0.979	> 10200 nM	0.805	14900 nM
SAS (head and neck, adherent)	0.98	> 16000 nM	0.336	104 nM	0.94	> 1020 nM	0.973	> 10000 nM	0.716	70.7 nM	0.971	> 20000 nM	0.977	> 2000 nM	0.32	18.9 nM	0.948	> 10200 nM	0.909	> 20000 nM
SAT (head and neck, adherent)	0.959	> 16000 nM	0.585	608 nM	0.974	> 1020 nM	0.936	> 10000 nM	0.736	112 nM	0.956	> 20000 nM	0.816	> 2000 nM	0.932	> 1020 nM	0.975	> 10200 nM	0.975	> 20000 nM
SBC-5 (small cell lung carcinoma, adherent)	0.993	> 16000 nM	0.436	216 nM	0.992	> 1020 nM	0.992	> 10000 nM	0.592	27.2 nM	0.99	> 20000 nM	0.977	> 2000 nM	0.023	< 4 nM	0.987	> 10200 nM	0.444	907 nM
SCC-4 (head and neck, adherent)	0.942	> 16000 nM	0.654	911 nM	0.982	> 1020 nM	0.978	> 10000 nM	0.607	33.3 nM	0.976	> 20000 nM	0.965	> 2000 nM	0.686	235 nM	0.983	> 10200 nM	0.935	> 20000 nM
SCC-9 (head and neck, adherent)	0.971	> 16000 nM	0.625	762 nM	0.98	> 1020 nM	0.969	> 10000 nM	0.702	69.9 nM	0.937	> 20000 nM	0.981	> 2000 nM	0.98	> 1020 nM	0.909	> 10200 nM	0.935	> 20000 nM
SCC-25 (head and neck, adherent)	0.974	> 16000 nM	0.592	578 nM	0.921	> 1020 nM	0.952	> 10000 nM	0.805	150 nM	0.916	> 20000 nM	0.983	> 2000 nM	0.706	265 nM	0.949	> 10200 nM	0.906	> 20000 nM
SJRH30 (rhabdomyosarcoma, adherent)	0.966	> 16000 nM	0.398	163 nM	0.985	> 1020 nM	0.977	> 10000 nM	0.67	48.4 nM	0.986	> 20000 nM	0.986	> 2000 nM	0.535	80 nM	0.98	> 10200 nM	0.936	> 20000 nM
SK-HEP-1 (liver, adherent)	0.973	> 16000 nM	0.703	1110 nM	0.989	> 1020 nM	0.986	> 10000 nM	0.413	9.41 nM	0.975	> 20000 nM	0.989	> 2000 nM	0.285	16.5 nM	0.973	> 10200 nM	0.801	9010 nM
SK-MEL-3 (melanoma, adherent)	0.984	> 16000 nM	0.696	1220 nM	0.956	> 1020 nM	0.983	> 10000 nM	0.687	58.7 nM	0.977	> 20000 nM	0.961	> 2000 nM	0.559	95.3 nM	0.975	> 10200 nM	0.909	> 20000 nM
